# Experimental data taken from the supplement of paper PMC8285479.
# Structures can show the parent of a compound that is named as a salt. ± gives the standard deviation of the averaged measurements. In all, about 1,900 compounds were measured (“normalised cell viability (NPI; 0 = phenylarsine oxide control, 1 = DMSO control)”: median about 1, lowest 2% from about 0.039 on). Some of the results follow.
# Tested on: NCI-H1944
# Assay: normalised cell viability (NPI; 0 = phenylarsine oxide control, 1 = DMSO control) (fraction of DMSO control); NCI-H1944 is a non-small cell lung cancer line; higher = more viable cells (less compound toxicity)
# Settings: 6 days
# [1] = glucocorticoid arm: hydrocortisone 2.75 uM co-treatment, compound 1 µM
# [2] = glucocorticoid arm: hydrocortisone 2.75 uM co-treatment, compound 5 µM
# [3] = glucocorticoid arm: hydrocortisone 2.75 uM pre-treated 2 days and continued, compound 1 µM
# [4] = glucocorticoid arm: hydrocortisone 2.75 uM pre-treated 2 days and continued, compound 5 µM
# [5] = glucocorticoid arm: vehicle, compound 1 µM
# [6] = glucocorticoid arm: vehicle, compound 5 µM
# 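Note: CTB read-out in 384-well plates, mean of triplicate wells, normalised per plate against 1 µM phenylarsine oxide and 0.1% DMSO, compounds added 24 h after seeding.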
Structure (SMILES),normalised cell viability [1],normalised cell viability [2],normalised cell viability [3],normalised cell viability [4],normalised cell viability [5],normalised cell viability [6]
Cn1c(=O)cc(N2CCC[C@@H](N)C2)n(Cc2ccccc2C#N)c1=O [Alogliptin (SYR-322)],0.976 ± 0.012,1 ± 0.024,0.969 ± 0.027,1 ± 0.016,0.986 ± 0.0017,0.995 ± 0.013
COc1cc(Nc2ncc(F)c(Nc3ccc4c(n3)N(COP(=O)(O)O)C(=O)C(C)(C)O4)n2)cc(OC)c1OC [R788 (Fostamatinib)],0.745 ± 0.02,0.551 ± 0.041,0.821 ± 0.019,0.642 ± 0.036,0.845 ± 0.025,0.57 ± 0.035
COc1cc(Nc2ncc(F)c(Nc3ccc4c(n3)N(COP(=O)(O)O)C(=O)C(C)(C)O4)n2)cc(OC)c1OC,0.78 ± 0.02,0.53 ± 0.025,0.845 ± 0.018,0.635 ± 0.026,0.952 ± 0.026,0.632 ± 0.07
CN1CC2c3ccccc3Oc3ccc(Cl)cc3C2C1 (stereo unspecified) [Asenapine],1.002 ± 0.0072,1.02 ± 0.024,1.01 ± 0.011,1.01 ± 0.028,0.995 ± 0.0087,1 ± 0.0092
CNC(=O)Nc1ccc(-c2nc(N3CC4CCC(C3)O4)c3cnn(C4CCC5(CC4)OCCO5)c3n2)cc1,0.382 ± 0.022,0.333 ± 0.0042,0.551 ± 0.013,0.478 ± 0.095,0.239 ± 0.013,0.192 ± 0.017
CSc1nc(N)c2ncn([C@@H]3O[C@H](COP(=O)(O)OP(=O)(O)OP(=O)(O)O)[C@H](O)C3O)c2n1 (stereo partly specified) [2-Methylthioadenosine triphosphate tetrasodium],0.9897 ± 0.005,0.9943 ± 0.0081,0.9963 ± 0.0031,0.991 ± 0.0085,1 ± 0.019,0.9927 ± 0.004
"CC(=O)C(C)=O [2,3-Butanedione]",0.99 ± 0.011,0.9887 ± 0.0051,0.9867 ± 0.0085,1 ± 0.032,0.9933 ± 0.0021,0.9963 ± 0.0055
COc1cc(C(O)C(=O)O)ccc1O (racemic) [(±)-Vanillylmandelic acid],1.02 ± 0.01,1.02 ± 0.04,1.02 ± 0.011,1.01 ± 0.011,1.027 ± 0.0058,1.02 ± 0.01
Cn1cc(-c2ccc3nnc(C(F)(F)c4ccc5ncccc5c4)n3n2)cn1,0.997 ± 0.012,1.04 ± 0.011,0.99967 ± 0.00058,1.04 ± 0.029,1.002 ± 0.0068,1.01 ± 0.012
CN1[C@@H](CC(=O)c2ccccc2)CCC[C@H]1C[C@H](O)c1ccccc1 [alpha-Lobeline hydrochloride],1.003 ± 0.0064,0.977 ± 0.021,1.006 ± 0.0069,1 ± 0.02,0.991 ± 0.0044,0.997 ± 0.011
CC(=O)OCC1=C(C(=O)O)N2C(=O)[C@@H](NC(=O)CSc3ccncc3)[C@H]2SC1 [Cephapirin sodium salt],1.01 ± 0.011,1 ± 0.02,0.997 ± 0.015,0.998 ± 0.0028,1.007 ± 0.0058,1.01
CCCCCCCCc1ccc(CCC(N)(CO)CO)cc1 [Fingolimod (FTY720) HCl],1 ± 0.034,0.929 ± 0.078,0.984 ± 0.047,0.963 ± 0.044,0.9973 ± 0.0086,0.842 ± 0.13
CCCCCCCC/C=C\CCCCCCCC(=O)NCCc1ccc(O)c(O)c1 [N-Oleoyldopamine],0.988 ± 0.011,1 ± 0.014,1.02 ± 0.05,0.982 ± 0.016,0.993 ± 0.0044,0.9893 ± 0.0063
Nc1ncnc2c1c(-c1cccc(OCc3ccccc3)c1)cn2C1CC(CN2CCC2)C1 (stereo unspecified),0.457 ± 0.025,0.366 ± 0.021,0.596 ± 0.0046,0.436 ± 0.062,0.939 ± 0.013,0.776 ± 0.039
COC(=O)c1c(-c2cc(OC)c(OC)c(OC)c2)c2ccnc(OCc3ncccn3)c2c(=O)n1Cc1ccnc(C)c1,0.991 ± 0.0076,1.02 ± 0.015,1.02 ± 0.011,1 ± 0.018,0.9917 ± 0.0076,0.9933 ± 0.0015
CCOC(=O)C1=C[C@]2(CC)CCCN3CCc4c(n1c1ccccc41)[C@@H]32 [Vinpocetine],0.999 ± 0.011,1.013 ± 0.0058,0.907 ± 0.19,1.017 ± 0.0058,1.003 ± 0.0061,0.994 ± 0.0066
CC1CN(S(=O)(=O)c2cccc3cnccc23)CCN1 (stereo unspecified),0.9777 ± 0.0078,0.966 ± 0.025,0.9933 ± 0.0051,1.01 ± 0.091,0.9757 ± 0.0074,0.9753 ± 0.0076
CC1CNCCN1S(=O)(=O)c1cccc2cnccc12 (stereo unspecified),0.994 ± 0.0044,0.987 ± 0.022,1.013 ± 0.0058,1.12 ± 0.084,1.003 ± 0.0058,0.719 ± 0.19
CNCCC(Oc1ccccc1OC)c1ccccc1 (stereo unspecified) [Nisoxetine hydrochloride],0.9923 ± 0.0025,0.9793 ± 0.0092,1.002 ± 0.0072,1.05 ± 0.085,0.9853 ± 0.0015,0.989 ± 0.007
"O=NN(CCCl)C(=O)NC1CCCCC1 [Lomustine, CCNU; Lomustine]",1.01 ± 0.02,1.07 ± 0.061,1.01 ± 0.01,1.04 ± 0.01,0.9987 ± 0.0098,1 ± 0.0091
CC(C)Cc1ccc(C(C)C(=O)O)cc1 (racemic) [(±)-Ibuprofen],0.992 ± 0.012,1.02 ± 0.02,0.998 ± 0.0035,1.04 ± 0.077,0.9873 ± 0.0015,0.9917 ± 0.0015
O=C1N(c2ccccc2)c2ccccc2C1(Cc1ccncc1)Cc1ccncc1 [Linopirdine],0.9967 ± 0.0042,1.03 ± 0.03,1 ± 0.0084,1.06 ± 0.074,0.984 ± 0.0053,0.9897 ± 0.0095
"CCCn1c(=O)c2[nH]c(-c3ccc(S(=O)(=O)O)cc3)nc2n(CCC)c1=O [1,3-Dipropyl-8-p-sulfophenylxanthine]",0.9873 ± 0.0049,0.99 ± 0.01,0.994 ± 0.01,0.986 ± 0.034,0.996 ± 0.016,0.996 ± 0.0061
Cc1ccccc1N1C(=O)c2cc(S(N)(=O)=O)c(Cl)cc2NC1C (stereo unspecified) [Metolazone],–,–,–,1.02,–,–
CN(C)CCC(c1ccc(Br)cc1)c1ccccn1 (racemic) [(±)-Brompheniramine maleate],1.001 ± 0.0081,1.03 ± 0.017,1.013 ± 0.0058,1.04 ± 0.014,1.013 ± 0.0058,1.02 ± 0.01
OCCOCCN1CCN(C(c2ccccc2)c2ccc(Cl)cc2)CC1 (stereo unspecified) [Hydroxyzine 2HCl],0.9733 ± 0.0051,0.957 ± 0.03,0.97 ± 0.024,0.993 ± 0.024,1.003 ± 0.0063,0.9973 ± 0.0025
